# Experimental data: the supplement of paper PMC8728848
# The list shows a part of the results.
# What was measured:
# Test in all cases: glycan array binding signal (z-score within array); higher = stronger binding
# Details in all cases: glycan notation: IUPAC condensed, linker removed
# [1] = biological target: Gal6S(b1-4)Glc
# In short: (§1)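 The binding signal is a Z-score computed within each array and averaged over linkers. Arrays of the same protein sequence at different concentrations or buffers were also averaged together. Data originate from 3228 arrays in the Consortium for Functional Glycomics database, kept only where the protein sequence was available.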
# [2] = biological target: Gal6S(b1-4)Glc6S
# In short: as §1
# [3] = biological target: Gal6S(b1-4)GlcNAc
# In short: as §1
# [4] = biological target: Gal6S(b1-4)GlcNAc6S
# In short: as §1
# [5] = biological target: GalNAc(a1-3)Gal
# In short: as §1
# [6] = biological target: GalNAc(a1-3)GalNAc
# In short: as §1
# [7] = biological target: GalNAc(b1-3)Gal
# In short: as §1
# [8] = biological target: GalNAc(b1-3)Gal(a1-4)Gal(b1-4)GlcNAc
# In short: as §1
# [9] = biological target: GalNAc(b1-3)GalNAc
# In short: as §1
# [10] = biological target: GalNAc(b1-4)GlcNAc
# In short: as §1
# [11] = biological target: Glc(a1-4)Glc
# In short: as §1
# [12] = biological target: Glc(a1-6)Glc(a1-6)Glc
# In short: as §1
# [13] = biological target: Glc(b1-4)Glc
# In short: as §1
# [14] = biological target: Glc(b1-6)Glc
# In short: as §1
# [15] = biological target: GlcA(b1-3)Gal
# In short: as §1
# [16] = biological target: GlcA(b1-3)GlcNAc
# In short: as §1
# [17] = biological target: GlcA(b1-6)Gal
# In short: as §1
# [18] = biological target: GlcNAc(a1-3)Gal(b1-4)GlcNAc
# In short: as §1
# [19] = biological target: GlcNAc(a1-6)Gal(b1-4)GlcNAc
# In short: as §1
# [20] = biological target: GlcNAc(b1-2)Gal(b1-3)GalNAc
# In short: as §1
# [21] = biological target: GlcNAc(b1-2)Man(a1-3)[GlcNAc(b1-2)Man(a1-6)]Man(b1-4)GlcNAc(b1-4)GlcNAc
# In short: as §1
# [22] = biological target: GlcNAc(b1-3)Gal
# In short: as §1
# [23] = biological target: GlcNAc(b1-3)Gal(b1-3)GalNAc
# In short: as §1
# [24] = biological target: GlcNAc(b1-3)Gal(b1-4)Glc
# In short: as §1
# [25] = biological target: GlcNAc(b1-3)Gal(b1-4)GlcNAc
# In short: as §1
# [26] = biological target: GlcNAc(b1-3)Gal(b1-4)GlcNAc(b1-3)Gal(b1-4)GlcNAc
# In short: as §1
# [27] = biological target: GlcNAc(b1-3)GalNAc
# In short: as §1
# [28] = biological target: GlcNAc(b1-3)Man
# In short: as §1
# [29] = biological target: GlcNAc(b1-3)[GlcNAc(b1-4)][GlcNAc(b1-6)]GlcNAc
# In short: as §1
# [30] = biological target: GlcNAc(b1-3)[GlcNAc(b1-6)]Gal(b1-4)GlcNAc
# In short: as §1
# [31] = biological target: GlcNAc(b1-3)[GlcNAc(b1-6)]GalNAc
# In short: as §1
# [32] = biological target: GlcNAc(b1-4)Gal(b1-4)GlcNAc
# In short: as §1
# [33] = biological target: GlcNAc(b1-4)GlcNAc
# In short: as §1
# [34] = biological target: GlcNAc(b1-4)GlcNAc(b1-4)GlcNAc
# In short: as §1
# [35] = biological target: GlcNAc(b1-4)GlcNAc(b1-4)GlcNAc(b1-4)GlcNAc(b1-4)GlcNAc
# In short: as §1
# [36] = biological target: GlcNAc(b1-4)GlcNAc(b1-4)GlcNAc(b1-4)GlcNAc(b1-4)GlcNAc(b1-4)GlcNAc
# In short: as §1
# [37] = biological target: GlcNAc(b1-4)[GlcNAc(b1-6)]GalNAc
# In short: as §1
# [38] = biological target: GlcNAc(b1-6)Gal(b1-4)GlcNAc
# In short: as §1
binder,measurement,setting,value
"NKp30 (Homo sapiens), O14931 (protein) MAWMLLLILIMVHPGSCALWVSQPPEIRTLEGSSAFLPCSFNASQGRLAIGSVTWFRDEVVPGKEVRNGTPERFGRLAPLASSRFLHDHQAELHIRDVRGHDASIYVCRVEVLGLGVGTGNGTRLVVRKEHPQLGAGTHADPEAPEAEGAPSVFLFPPKPKDTLMISRTPEVTCVVVDVSHEDPEVKFNWYVDGVEVHNAKTPREEQYNSTYRVVSVLTVLHQDWLNGKEYKCKVSNKALPAPIEKTISKAKGQPREPQVYTLPPSRDELTKNQVSLTCLVKGFYPSDIAVEWESNGQPENNYKTTPPVLDSDGSFFLYSKLTVDKSRWQQGNVFSCSVMHEALHNHYTQKSLSLSPGK",glycan array binding signal (z-score),[1],0.789
same,glycan array binding signal (z-score),[2],0.09
same,glycan array binding signal (z-score),[3],1.31
same,glycan array binding signal (z-score),[4],0.261
same,glycan array binding signal (z-score),[5],0.266
same,glycan array binding signal (z-score),[6],0.254
same,glycan array binding signal (z-score),[7],0.357
same,glycan array binding signal (z-score),[8],0.274
same,glycan array binding signal (z-score),[9],1.68
same,glycan array binding signal (z-score),[10],-0.089
same,glycan array binding signal (z-score),[11],0.053
same,glycan array binding signal (z-score),[12],0.055
same,glycan array binding signal (z-score),[13],-0.299
same,glycan array binding signal (z-score),[14],-0.037
same,glycan array binding signal (z-score),[15],-0.57
same,glycan array binding signal (z-score),[16],0.258
same,glycan array binding signal (z-score),[17],-0.054
same,glycan array binding signal (z-score),[18],0.868
same,glycan array binding signal (z-score),[19],-0.367
same,glycan array binding signal (z-score),[20],0.539
same,glycan array binding signal (z-score),[21],0.042
same,glycan array binding signal (z-score),[22],-0.224
same,glycan array binding signal (z-score),[23],-0.628
same,glycan array binding signal (z-score),[24],-0.366
same,glycan array binding signal (z-score),[25],-0.475
same,glycan array binding signal (z-score),[26],-0.382
same,glycan array binding signal (z-score),[27],-0.234
same,glycan array binding signal (z-score),[28],-0.416
same,glycan array binding signal (z-score),[29],0.307
same,glycan array binding signal (z-score),[30],-0.303
same,glycan array binding signal (z-score),[31],0.236
same,glycan array binding signal (z-score),[32],0.402
same,glycan array binding signal (z-score),[33],0.115
same,glycan array binding signal (z-score),[34],0.282
same,glycan array binding signal (z-score),[35],-0.751
same,glycan array binding signal (z-score),[36],0.145
same,glycan array binding signal (z-score),[37],-0.794
same,glycan array binding signal (z-score),[38],-0.435
